Drawing on the supplement of paper PMC9446081, this text covers relative growth for 57 compounds.

The campaign covered roughly 39,000 compounds. About 220 (0.56%) showed activity. The list shows a part of the results.
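Further: static incubation at 37 °C against the wild-type strain, values averaged over two biological replicates.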

This test relates to Escherichia coli K-12 BW25113. The test is described as follows: relative growth (OD600 normalised to plate interquartile mean) (fraction); higher = less growth inhibition, active = 0.2 or less. The following applies: 50 µM; LB; incubation time: overnight (16-24 h).
With `COCc1cn(CC[C@@H]2CC[C@@H](NC(=O)CCN3CCCCC3)[C@H](CO)O2)nn1`, the relative growth was inactive: 0.983.

Take `CC(C)NC(=O)N(C)C[C@@H]1Oc2ccc(NS(=O)(=O)c3cn(C)cn3)cc2CC(=O)N([C@H](C)CO)C[C@@H]1C`: the relative growth is inactive: 0.971.

Turning to `C[C@@H]1CN([C@H](C)CO)C(=O)Cc2cc(NC(=O)Nc3cccc4ccccc34)ccc2O[C@@H]1CN(C)Cc1ccc(C(=O)O)cc1`, the relative growth is inactive: 0.994.

On to `C[C@@H]1O[C@@H](OC[C@H]2O[C@@H](OCCc3ccccc3)[C@H](O)[C@@H](O)[C@@H]2O)[C@H](O)[C@H](O)[C@H]1O`, for which the relative growth is inactive: 0.954.

Turning to `Cc1noc(C)c1S(=O)(=O)N(C)C[C@@H]1Oc2ccc(NS(=O)(=O)c3ccc(F)cc3)cc2CC(=O)N([C@@H](C)CO)C[C@@H]1C`, the relative growth was inactive: 0.975.

For the compound `C[C@H]1CN([C@@H](C)CO)C(=O)c2cc(NS(=O)(=O)c3cccs3)ccc2O[C@@H]1CN(C)S(=O)(=O)c1cn(C)cn1`, the relative growth was inactive: 0.999.

On to `CC(C)CC#Cc1cnc2c(c1)C(=O)N([C@@H](C)CO)C[C@@H](C)[C@H](CN(C)C(=O)c1ccc3c(c1)OCO3)O2`, for which the relative growth is inactive: 0.969.

Regarding `O=S(=O)(C1CCCCC1)C1CNC1`, the relative growth is inactive: 0.977.

For the compound `COc1ccc(S(=O)(=O)N(C)C[C@@H]2Oc3ccc(NC(=O)NC(C)C)cc3CC(=O)N([C@H](C)CO)C[C@@H]2C)cc1`, the relative growth is inactive: 1.03.

On to `CN1CCN(C(=O)C[C@@H]2CC[C@@H]3[C@H](COc4ccc(NC(=O)c5cscn5)cc4C(=O)N3C)O2)CC1`, for which the relative growth was inactive: 0.913.

On to `NNC(=O)c1nc(-c2ccccc2)no1`, for which the relative growth was inactive: 0.977.

With `C[C@@H]1CCCCO[C@H](CN(C)CC2CCCCC2)[C@H](C)CN([C@@H](C)CO)C(=O)c2cc(NS(=O)(=O)c3cccs3)ccc2O1`, the relative growth is inactive: 1.01.

In the case of `C[C@@H]1CCCCO[C@@H](CN(C)Cc2ccc(C(F)(F)F)cc2)[C@@H](C)CN([C@@H](C)CO)C(=O)c2cc(NS(=O)(=O)c3ccc(F)cc3)ccc2O1`, the relative growth was inactive: 1.06.

With `C[C@H](CO)N1C[C@H](C)[C@@H](CN(C)C(=O)NC2CCCCC2)OCCCC[C@H](C)Oc2ccc(NS(=O)(=O)c3ccc(Cl)cc3)cc2C1=O`, the relative growth was inactive: 1.02.

`CO[C@H]1CN(C)C(=O)c2ccc(NS(=O)(=O)c3ccccc3)cc2OC[C@H](C)N(C(=O)NC(C)C)C[C@@H]1C`: the relative growth is inactive: 0.969.

For the compound `C[C@@H]1CN([C@@H](C)CO)C(=O)Cc2cc(NC(=O)C3CCCCC3)ccc2O[C@H]1CN(C)Cc1ccc(C(F)(F)F)cc1`, the relative growth was inactive: 0.991.

Regarding `C[C@@H]1CN([C@H](C)CO)C(=O)Cc2cc(NC(=O)Cn3cnnn3)ccc2O[C@H]1CN(C)Cc1ccc(C(=O)Nc2ccccc2N)cc1`, the relative growth was inactive: 1.05.

As for `C[C@H](CO)N1C[C@H](C)[C@@H](CN(C)Cc2ccc(Oc3ccccc3)cc2)Oc2ccc(NC(=O)CCCN(C)C)cc2CC1=O`, the relative growth was inactive: 0.965.

With `Cc1ccc(S(=O)(=O)N2C[C@H](O)COC[C@H]3O[C@H](CC(=O)NCCCN(C)C)CC[C@@H]32)cc1`, the relative growth is inactive: 1.03.

On to `COc1cccc(S(=O)(=O)N(C)C[C@@H]2Oc3ncc(C#CC(C)C)cc3C(=O)N([C@H](C)CO)C[C@@H]2C)c1`, for which the relative growth is inactive: 0.995.

As for `Cc1noc(C)c1NC(=O)Nc1ccc2c(c1)C(=O)N([C@@H](C)CO)C[C@@H](C)[C@@H](CN(C)Cc1ccncc1)OCCCC[C@H](C)O2`, the relative growth is inactive: 0.964.

For `C#Cc1ccc([C@@H]2C=C(C(=O)N3CCN(Cc4ccc5c(c4)OCO5)CC3)O[C@H](OCC)[C@H]2CCCO)cc1`, the relative growth is inactive: 1.02.

For the compound `Cl.OC(CCN1CCCCC1)(c1ccccc1)C1CCCCC1` (configuration not stated), the relative growth is inactive: 0.988.

Regarding `C[C@@H]1CN([C@H](C)CO)C(=O)Cc2cc(NC(=O)Nc3ccccc3)ccc2O[C@@H]1CN(C)Cc1ccc(Oc2ccccc2)cc1`, the relative growth was inactive: 0.993.

For `COc1ccc(NC(=O)N(C)C[C@H]2OCCCC[C@H](C)Oc3ccc(NS(=O)(=O)c4ccc(F)cc4)cc3C(=O)N([C@@H](C)CO)C[C@@H]2C)cc1`, the relative growth is inactive: 0.933.

As for `COc1cccc(C(=O)Nc2ccc3c(c2)C(=O)N(C)[C@H]2CC[C@H](CC(=O)NCC(F)(F)F)O[C@H]2CO3)c1`, the relative growth is inactive: 0.991.

For the compound `CCCNC(=O)Nc1ccc2c(c1)C(=O)N(C)C[C@@H](OC)[C@@H](C)CN(Cc1ccc(-c3ccccn3)cc1)[C@@H](C)CO2`, the relative growth was inactive: 1.02.

As for `CCCCC/C=C/CCC(=O)N[C@H]1[C@H](Oc2c3cc4cc2Oc2ccc(cc2Cl)[C@@H](O[C@@H]2O[C@H](CO)[C@@H](O)[C@H](O)[C@H]2NC(C)=O)[C@@H]2NC(=O)[C@H](NC(=O)[C@@H]4NC(=O)[C@H]4NC(=O)[C@@H](Cc5ccc(c(Cl)c5)O3)NC(=O)[C@H](N)c3ccc(O)c(c3)Oc3cc(O)cc4c3)c3ccc(O)c(c3)-c3c(O[C@H]4O[C@H](CO)[C@@H](O)[C@H](O)[C@@H]4O)cc(O)cc3[C@@H](C(=O)O)NC2=O)O[C@H](CO)[C@@H](O)[C@@H]1O`, the relative growth was inactive: 0.978.

On to `CC(=O)n1cc([C@@H]2C=C(C(=O)N3CCN(Cc4ccc5c(c4)OCO5)CC3)O[C@H](OCc3ccc(COC(=O)NCCCCCC(=O)NO)cc3)C2)c2ccccc21`, for which the relative growth was inactive: 0.969.

In the case of `[Cl][Ca][Cl]`, the relative growth is inactive: 1.14.

For the compound `COc1ccc(CN(C)C[C@H]2OCCCC[C@H](C)Oc3ccc(NC(=O)Nc4c(C)noc4C)cc3C(=O)N([C@@H](C)CO)C[C@H]2C)cc1`, the relative growth is inactive: 0.985.

On to `C[C@@H]1CCCCO[C@H](CN(C)S(C)(=O)=O)[C@@H](C)CN([C@@H](C)CO)C(=O)c2cc(NS(C)(=O)=O)ccc2O1`, for which the relative growth is inactive: 0.997.

Take `C[C@@H]1CN([C@H](C)CO)C(=O)Cc2cc(N(C)C)ccc2O[C@H]1CN(C)S(=O)(=O)c1ccc(F)cc1`: the relative growth was inactive: 1.

For `C[C@H]1CN([C@@H](C)CO)C(=O)c2cc(NC(=O)C3CCCCC3)ccc2O[C@H]1CN(C)Cc1ccc(C(F)(F)F)cc1`, the relative growth is inactive: 0.97.

Consider `C[C@@H]1CN([C@H](C)CO)C(=O)c2cc(NC(=O)Nc3ccc(F)cc3)ccc2O[C@@H](C)CCCCO[C@@H]1CN(C)CC1CCCCC1`, for which the relative growth was inactive: 1.03.

Regarding `C[C@@H]1CCCCO[C@H](CN(C)Cc2ccc(C(F)(F)F)cc2)[C@@H](C)CN([C@@H](C)CO)C(=O)c2cc(NS(=O)(=O)c3cn(C)cn3)ccc2O1`, the relative growth was inactive: 0.945.

On to `COCC#Cc1ccc2c(c1)O[C@H](CN(C)C(=O)c1ccccc1)[C@@H](C)CN([C@@H](C)CO)S2(=O)=O`, for which the relative growth is inactive: 1.01.

For the compound `COCC(=O)Nc1ccc2c(c1)[C@@H]1C[C@H](CC(=O)N3CCOCC3)O[C@@H](CO)[C@@H]1O2`, the relative growth is inactive: 0.997.

`COc1ccc(S(=O)(=O)N[C@@H]2CC[C@@H](CC(=O)N3CCN(c4ccccc4)CC3)O[C@@H]2CO)cc1`: the relative growth was inactive: 0.993.

Consider `C[C@H](CO)N1C[C@H](C)[C@@H](CN(C)CC2CCCCC2)Oc2ccc(NC(=O)Nc3cccc4ccccc34)cc2C1=O`, for which the relative growth was inactive: 1.02.

With `C[C@H](CO)N1C[C@H](C)[C@H](CN(C)C(=O)Nc2cc(F)ccc2F)Oc2cc(/C=C/c3ccccc3)ccc2S1(=O)=O`, the relative growth is inactive: 1.01.

For the compound `OCC(O)CN1CCN(c2ccccc2)CC1` (configuration not stated), the relative growth was inactive: 1.11.

For the compound `C[C@@H]1CN([C@H](C)CO)C(=O)c2cc(NC(=O)Nc3ccc4c(c3)OCO4)ccc2O[C@@H]1CN(C)Cc1ccc(C(F)(F)F)cc1`, the relative growth is inactive: 1.07.

Take `C[C@@H]1CN([C@@H](C)CO)C(=O)Cc2cc(NC(=O)Nc3ccc(C(F)(F)F)cc3)ccc2O[C@@H]1CN(C)C(=O)NC1CCCCC1`: the relative growth was inactive: 1.06.

For `C[C@@H]1CN([C@H](C)CO)C(=O)CCCn2nncc2CO[C@@H]1CN(C)C(=O)c1cc(-c2ccccc2)on1`, the relative growth was inactive: 0.986.

For `O=C(C[C@H]1C[C@@H]2c3cc(NS(=O)(=O)c4ccc(F)cc4)ccc3O[C@@H]2[C@@H](CO)O1)N1CCCCC1`, the relative growth is inactive: 0.962.

With `CS(=O)(=O)Nc1ccc2c(c1)[C@H]1C[C@H](CC(=O)NCC3CC3)O[C@H](CO)[C@H]1O2`, the relative growth was inactive: 0.983.

On to `C[C@@H]1CN([C@@H](C)CO)C(=O)c2cc(NC(=O)Nc3cccc4ccccc34)ccc2O[C@@H]1CN(C)Cc1ccc(C(=O)Nc2ccccc2N)cc1`, for which the relative growth is inactive: 0.964.

In the case of `C[C@@H]1CN([C@@H](C)CO)S(=O)(=O)c2ccc(-c3ccccc3F)cc2O[C@H]1CN(C)S(C)(=O)=O`, the relative growth is inactive: 1.01.

`C[C@@H]1CCCCO[C@H](CN(C)C(=O)Nc2ccc(C(F)(F)F)cc2)[C@H](C)CN([C@@H](C)CO)C(=O)c2cc(NC(=O)Nc3ccc(F)cc3)ccc2O1`: the relative growth is inactive: 1.05.

Regarding `C[C@@H]1CN([C@H](C)CO)C(=O)Cc2cc(NS(=O)(=O)c3ccc(F)cc3)ccc2O[C@@H]1CN(C)CC1CC1`, the relative growth is inactive: 0.971.

As for `CO[C@H]1O[C@H](CO)[C@@H](OC(=O)c2ccc(Br)cc2)[C@@H]2OC(=O)[C@H](Cc3cccc(Br)c3)C/C=C/C[C@@H](Cc3cccc(Br)c3)C(=O)O[C@@H]12`, the relative growth is inactive: 1.02.

Consider `N[C@H]1CCN(c2nc3c(cc2F)c(=O)c(C(=O)O)cn3-c2ccc(F)cc2F)C1`, for which the relative growth was active: 0.17.

In the case of `C[C@@H]1CN([C@@H](C)CO)C(=O)c2cc(NC(=O)c3ccccc3)ccc2O[C@@H](C)CCCCO[C@@H]1CN(C)Cc1ccccc1`, the relative growth is inactive: 0.876.

With `COc1cc2c(cc1OC)C(=O)OC2`, the relative growth is inactive: 0.911.

With `Nc1nc(N)nc(-c2ccccc2)n1`, the relative growth was inactive: 1.01.

In the case of `O=C(C[C@H]1CC[C@@H]2[C@H](COC[C@@H](O)CN2C(=O)Nc2ccc(Cl)c(Cl)c2)O1)NCc1ccncc1`, the relative growth was inactive: 0.981.
